Test results taken from PubChem BioAssay AID485294 (National Center for Advancing Translational Sciences (NCATS), 2010).
Screen size: about 370,000 compounds; about 150 (0.041%) were called active. This list was built around the results that the source calls inconclusive (neither active nor inactive); the mix of calls is not that of the screen. Calls follow the shape of the dose curve; as a rule, active = well fitted inhibition curve with a large enough effect; inconclusive = small, poorly fitted or top-dose-only effect; inactive = flat fitted curve, though single readings scatter. Potencies of inconclusive entries are left out as doubtful fits.

These compounds were tested against Beta-lactamase (Escherichia coli (strain K12)) (UniProt P00811) (assay: qHTS Inhibitors of AmpC Beta-Lactamase (assay with detergent)). Details: AmpC hydrolysis of nitrocefin, absorbance 480 nm, 0.01% Triton; series mostly up to 114 µM.
Summary of the method: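 20 mM phosphate pH 7.0 + 0.01% (detergent screen) or 0.0001% Triton X-100; 5.3 nM AmpC reagent; cpd preinc 15 min RT; nitrocefin (800 uM stock) to start; A480 q20 s × 4 min; Activity was normalised to no-enzyme and no-compound control wells.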
Also: nearly all actives have a fitted effect of over 25% in size.
Potency is read from the fitted curve at half-maximal effect; tags tell the direction and shape of the fitted curve.

Sequence of UniProt P00811 (P00811 whole entry, looked up): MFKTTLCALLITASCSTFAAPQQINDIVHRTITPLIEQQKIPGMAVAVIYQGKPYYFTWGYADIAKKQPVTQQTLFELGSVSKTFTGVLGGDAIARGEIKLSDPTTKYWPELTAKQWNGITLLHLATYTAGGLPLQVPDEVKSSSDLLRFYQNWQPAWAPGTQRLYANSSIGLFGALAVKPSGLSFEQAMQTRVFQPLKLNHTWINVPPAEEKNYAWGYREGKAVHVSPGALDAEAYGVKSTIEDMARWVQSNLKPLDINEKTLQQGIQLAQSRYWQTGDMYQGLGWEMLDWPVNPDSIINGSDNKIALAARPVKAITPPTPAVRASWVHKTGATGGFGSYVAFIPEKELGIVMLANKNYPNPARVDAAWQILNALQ

Q: How did the Potency turn out when `CCOC(=O)c1cccc(NC(=O)c2cc(S(=O)(=O)N3CCCC3)cn2C)c1` was run?
A: inactive

Q: For `CCNC(=O)NC(=O)C(C)OC(=O)c1ccc(-n2nc(SC)sc2=S)cc1` (stereo not drawn), which Potency is on record?
A: inconclusive [inhibitor, full curve, poor fit]

Q: Which Potency does the source give for `CCSC1(SCC)N=C(N)C2(C#N)C(c3ccccc3)NC3=C(CCC3)C12C#N` (stereo not drawn) here?
A: inconclusive [inhibitor, full curve, poor fit]

Q: With `CC(Sc1nc2c(c(=O)n(C)c(=O)n2C)n1Cc1cc2c(cc1Cl)OCO2)C(=O)O` (stereo not drawn) as the compound, how does the Potency read?
A: inconclusive [inhibitor, full curve, poor fit]

Q: For `O=C(COC(=O)c1cccs1)NCC1CCCCC1`, which Potency is on record?
A: inactive

Q: How did the Potency turn out when `CCOC(=O)c1c(C)[nH]c(C(=O)COC(=O)CNC(=O)c2ccccc2Cl)c1C` was run?
A: inactive

Q: `COc1cc(C(=O)Nc2nccs2)c(Br)c(OC)c1OC` was tested. Which Potency did it give?
A: inconclusive [inhibitor, partial curve]

Q: Which Potency does the source give for `O=C(CN1CCCN(Cc2ccc(F)cc2Cl)C1=O)NC1CCCCCC1` here?
A: inconclusive [inhibitor, full curve, poor fit]

Q: Which Potency does the source give for `COc1ccc(-n2c(Cc3cc(=O)[nH]c(=O)[nH]3)nnc2SCC(=O)N2CCC(C)CC2)cc1` here?
A: inconclusive [inhibitor, full curve]

Q: With `O=C1c2ccccc2-c2onc3c(N4CCN(CCO)CC4)cc(N4CCN(C(=O)c5ccco5)CC4)c1c23` as the compound, how does the Potency read?
A: inactive

Q: Which Potency does the source give for `Cc1ccc(Cn2ncc3c(N4CCCC4)ncnc32)cc1` here?
A: inconclusive [inhibitor, single point]

Q: `CCCN(CCC)C1CC(=O)N(Cc2ccccc2)C1=O` (stereo not drawn) was tested. Which Potency did it give?
A: inconclusive [inhibitor, full curve, poor fit]

Q: `CCOc1ccc(C2=Nc3ccc(Br)cc3C(c3ccc(N4CCOCC4)cc3)=NN2)cc1` was tested. Which Potency did it give?
A: inconclusive [inhibitor, full curve, poor fit]

Q: Which Potency does the source give for `O=C(Nc1nc(-c2ccccc2)cs1)C1CCCN(S(=O)(=O)c2cccc([N+](=O)[O-])c2)C1` (stereo not drawn) here?
A: inconclusive [inhibitor, single point]

Q: For `COc1ccc(NC(=O)Nc2ccncc2)c(OC)c1`, which Potency is on record?
A: inactive

Q: `Cc1cc(Nc2ccc(C)c(C)c2)n2nc(C)nc2n1` was tested. Which Potency did it give?
A: inconclusive [inhibitor, partial curve, poor fit]

Q: For `NS(=O)(=O)c1ccc(NC(=O)CSc2nc3ccccc3[nH]2)cc1`, which Potency is on record?
A: inconclusive [inhibitor, single point]

Q: How did the Potency turn out when `CN1C(=O)/C(=C/c2cccc([N+](=O)[O-])c2)C(=O)N1c1ccccc1` was run?
A: inactive

Q: How did the Potency turn out when `CCCCn1c(SCC(=O)Nc2cccc(OC)c2)nc2ccsc2c1=O` was run?
A: inactive

Q: `O=C(Cc1ccccc1)NCCN1CCCC1` was tested. Which Potency did it give?
A: inconclusive [inhibitor, full curve]

Q: For `CCOC(=O)Cn1c(=NC(=O)CSC(C)=O)sc2ccccc21`, which Potency is on record?
A: inconclusive [inhibitor, full curve]

Q: Which Potency does the source give for `Cc1ccccc1CCN(CC(=O)NC1CCCCC1)C(=O)c1csnn1` here?
A: inconclusive [inhibitor, single point]

Q: Which Potency does the source give for `Cc1cccc(Nc2nc(Cl)ncc2F)c1C` here?
A: inactive

Q: `NC(=O)c1ccc[n+](CC(=O)c2cccc([N+](=O)[O-])c2)c1` was tested. Which Potency did it give?
A: inconclusive [inhibitor, partial curve]

Q: Which Potency does the source give for `Nc1c(-c2ccccc2)cnc2ncnn12` here?
A: inactive

Q: Which Potency does the source give for `CC(=O)Nc1ccc(S(=O)(=O)N(C)CC(=O)OCC(=O)NNC(=O)c2ccccc2F)cc1` here?
A: inconclusive [inhibitor, full curve, poor fit]

Q: Which Potency does the source give for `O=C(Nc1ccc(F)c(Cl)c1)C1Cc2ccccc2CN1S(=O)(=O)c1ccc(F)cc1` (stereo not drawn) here?
A: inactive

Q: For `Cc1cc(-c2nn(-c3ccccc3F)cc2CN2CCCC(C(N)=O)C2)c(C)s1` (stereo not drawn), which Potency is on record?
A: inactive

Q: With `O=C(NC1CCCCC1)C1CCN(c2nnnn2-c2ccccc2)CC1` as the compound, how does the Potency read?
A: inconclusive [inhibitor, partial curve, poor fit]

Q: How did the Potency turn out when `COc1cccc(-c2cc(C(=O)Nc3ccc([N+](=O)[O-])cn3)c3ccccc3n2)c1` was run?
A: inconclusive [inhibitor, full curve]

Q: Which Potency does the source give for `COCCNC(=O)CCn1c(=O)c2cc(OC)c(OC)cc2n(CC(=O)Nc2ccccc2OC)c1=O` here?
A: inactive

Q: With `Cc1nc2c(F)c(F)c(C(F)(F)F)c(F)c2[nH]1` as the compound, how does the Potency read?
A: inconclusive [inhibitor, single point]

Q: `COC(=O)c1ccc(C2C(C#N)=C(N)Oc3cc(O)ccc32)cc1` (stereo not drawn) was tested. Which Potency did it give?
A: inconclusive [inhibitor, partial curve]

Q: Which Potency does the source give for `NC(=O)c1ccc(SCC(=O)OCC(=O)N2CCN(C(=O)c3ccco3)CC2)c([N+](=O)[O-])c1` here?
A: inconclusive [inhibitor, full curve, poor fit]

Q: How did the Potency turn out when `O=C1C2C(c3ccccc3)C=CC(c3ccccc3)C2C(=O)N1c1ccncc1` (stereo not drawn) was run?
A: inconclusive [inhibitor, full curve]

Q: With `O=C(Nc1ccc2c(c1)OCO2)[C@@H]1CCCN1S(=O)(=O)c1cccc2cccnc12` as the compound, how does the Potency read?
A: inconclusive [inhibitor, partial curve, poor fit]

Q: How did the Potency turn out when `Cn1c(=O)c2c(nc(CN3CCN(Cc4ccccc4)CC3)n2Cc2ccc(F)cc2)n(C)c1=O` was run?
A: inconclusive [inhibitor, full curve]

Q: How did the Potency turn out when `O=C(Nc1ccc(F)cc1F)c1cc(=O)n(-c2ccccc2)c(=O)[nH]1` was run?
A: inactive

Q: `O=C(CNC(=O)c1ccncc1)N/N=C/c1ccccc1[N+](=O)[O-]` was tested. Which Potency did it give?
A: inactive

Q: Which Potency does the source give for `Cc1ccc(S(=O)(=O)N2CCCC2CNC(=O)C(=O)NC2CC2)cc1` (stereo not drawn) here?
A: inconclusive [inhibitor, single point]

Q: `COc1ccccc1Nc1nnc(SCc2cc(=O)n3cc(C)ccc3n2)s1` was tested. Which Potency did it give?
A: inconclusive [inhibitor, full curve, poor fit]

Q: Which Potency does the source give for `Cc1nnc(C)n1/N=C/c1ccc2c(c1)OCCO2` here?
A: inconclusive [inhibitor, single point]

Q: `CCCCCCNCCn1cnc2c(N)ncnc21` was tested. Which Potency did it give?
A: inconclusive [inhibitor, full curve, poor fit]

Q: With `CCOc1ccc(N2C(=O)CC(Sc3nc(C)cc(C)n3)C2=O)cc1` (stereo not drawn) as the compound, how does the Potency read?
A: inconclusive [inhibitor, full curve, poor fit]

Q: `CCc1nn2cc(C(=O)c3cc(Cl)ccc3O)cnc2c1-c1ccc(F)cc1` was tested. Which Potency did it give?
A: inconclusive [inhibitor, full curve, poor fit]

Q: How did the Potency turn out when `O=C(/C=C/c1ccco1)NCC1CCCO1` (stereo not drawn) was run?
A: inactive

Q: `COc1ccc(NC(=O)c2ccccc2)cc1` was tested. Which Potency did it give?
A: inactive

Q: Which Potency does the source give for `O=C1NC2(CCCC2)N=C1c1ccc(Cl)cc1` here?
A: inconclusive [inhibitor, full curve, poor fit]

Q: For `O=Cc1c(Nc2ccccc2Cl)nc2ccccn2c1=O`, which Potency is on record?
A: inconclusive [inhibitor, partial curve]

Q: How did the Potency turn out when `COc1ccccc1/C=C\C=N\n1c(-c2ccc(Cl)cc2)n[nH]c1=S` was run?
A: inconclusive [inhibitor, full curve, poor fit]

Q: `c1ccc(COc2ccc(OCCCCN3CCCC3)cc2)cc1` was tested. Which Potency did it give?
A: inactive

Q: Which Potency does the source give for `C/C(CC(=O)Nc1ccc(Cl)c(C(F)(F)F)c1)=N\NC(=O)c1cnccn1` here?
A: inactive

Q: How did the Potency turn out when `Cc1ccc(OCc2nc(C#N)c(N3CCCC3)o2)cc1` was run?
A: inconclusive [inhibitor, full curve, poor fit]

Q: For `CC(=O)Nc1ccc(S(=O)(=O)N2CCN(CC(=O)NC3CCCC3)CC2)cc1`, which Potency is on record?
A: inconclusive [inhibitor, full curve, poor fit]

Q: Which Potency does the source give for `CCn1cc(Cl)c(C(=O)Nc2nccs2)n1` here?
A: inactive

Q: With `COc1ccc(CNc2ccc3c(c2)CCC3)cc1OC` as the compound, how does the Potency read?
A: inconclusive [inhibitor, full curve, poor fit]

Q: How did the Potency turn out when `O=C(COc1ccccc1)N1CCN(S(=O)(=O)c2ccc(Br)cc2)CC1` was run?
A: inconclusive [inhibitor, partial curve]

Q: How did the Potency turn out when `CSc1ccccc1NC(=O)CN(C)C(=O)Cn1c(=O)oc2ccccc21` was run?
A: inconclusive [inhibitor, partial curve, poor fit]

Q: With `CC(=O)Nc1ccc(S(=O)(=O)NNC(=O)NC23CC4CC(CC(C4)C2)C3)cc1` as the compound, how does the Potency read?
A: inactive

Q: With `Cc1oc(-c2cccc(Cl)c2)nc1CN1CCC(C(=O)NCCCN2CCCC2=O)CC1` as the compound, how does the Potency read?
A: inconclusive [inhibitor, full curve, poor fit]

Q: How did the Potency turn out when `CCOC(=O)C1CCN(C(=O)CCNS(=O)(=O)c2ccc(C)cc2)CC1` was run?
A: inconclusive [inhibitor, single point]

Q: Which Potency does the source give for `O=C(O)CCC(=O)Nc1nc2ccccc2s1` here?
A: inconclusive [inhibitor, full curve, poor fit]

Q: For `O=C(/C(=N/N=C/c1ccc(O)c(O)c1O)c1ccccc1)c1ccccc1`, which Potency is on record?
A: inactive

Q: Which Potency does the source give for `CN1CN(C)c2cccc3cccc1c23` here?
A: inconclusive [inhibitor, partial curve, poor fit]

Q: How did the Potency turn out when `Cc1cc(CN2CCCCC2C(=O)Nc2ccc(Oc3cccnc3)cc2)oc1C` (stereo not drawn) was run?
A: inactive

Q: `COc1ccc(C(=O)C(CN2CCOCC2)c2ccccc2)cc1` (stereo not drawn) was tested. Which Potency did it give?
A: inconclusive [inhibitor, partial curve, poor fit]

Q: `CCc1cccc(CC)c1NC(=O)Cn1c(-c2ccccc2Cl)nc2ccccc21` was tested. Which Potency did it give?
A: inconclusive [inhibitor, partial curve, poor fit]

Q: How did the Potency turn out when `CCOC(=O)C1C2C=CC3(CN(C4CCCC4)C(=O)C13)O2` (stereo not drawn) was run?
A: inconclusive [inhibitor, full curve, poor fit]
